# Measurements from the supplement of paper PMC3334620.
# In all, about 33,000 sequences were measured (“E-score (-0.5 to 0.5)”: median about -0.056, highest 2% from about 0.38 on). The list shows a part of the results.
# Target: Stb4 (UniProt P50104)
# Assay: PBM E-score (8-mer binding enrichment) (E-score (-0.5 to 0.5)); higher = stronger / more preferred TF binding; most listed sequences are background and not binding sites
# Details: protein concentration: 200 nM; construct: GST-DNA-binding domain
# Experimental: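 Universal 'all 10-mer' protein binding microarrays (Agilent AMADID 015681) probed with GST-tagged S. cerevisiae TFs (full-length or DBD) made by in vitro transcription/translation (PURExpress), about 100-200 nM. Bound TF was detected with fluorescent anti-GST. Each ungapped 8-mer (which stands for itself and its reverse complement) is scored by the PBM enrichment score (E-score), a modified Wilcoxon-Mann-Whitney statistic from -0.5 to +0.5, computed with the Universal PBM Analysis Suite. Scale: above 0.35 generally sequence-specific binding.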
row,Sequence,PBM E-score
1,CGTCTATA,0.0382
2,CACGACCC,-0.0646
3,GCGTAGAA,0.0936
4,ACTGTGTG,-0.0688
5,ATTTTTAC,-0.0304
6,AACCTAGT,-0.074
7,CCGTCGAC,0.0646
8,GCTGATAC,-0.157
9,CCCCAGGA,-0.239
10,AATGACCG,0.125
11,ATCTGCTA,-0.3
12,GTGGTAGA,-0.129
13,AATGCGCG,0.259
14,ACACGCCT,-0.299
15,CTCGCGCA,0.0769
16,AGAAGCTA,0.0103
17,CAAGGCGG,0.0285
18,ACGTTGAC,-0.201
19,AATGGCAC,0.0162
20,GCAGGTAA,0.114
21,GTCCCCAA,-0.231
22,ATACCCAA,-0.0395
23,ATGAACCG,0.129
24,ACGAAAGC,-0.112
25,AATCGTCG,0.121

row,Sequence,PBM E-score
1,ACCTTAAG,-0.0705
2,CCCCGAAA,0.34
3,TAATCACA,-0.14
4,ACCGGTGG,0.0186
5,CCACAGAC,-0.261
6,GGACTCAC,-0.0454
7,GAGGTCAC,-0.096
8,CGACCCCC,-0.0261
9,GTCAATCA,-0.187
10,AATGAGCC,-0.021
11,AAATGTCT,-0.0741
12,ATCTTCCC,0.226
13,CCAAGATC,-0.0491
14,AACCGATG,0.222
15,GCCCGACA,0.187
16,ACGATGAC,-0.046
17,CGCGTCCG,0.06
18,AACGGTGG,-0.23
19,CATAAGAG,-0.0847
20,AGAAGCTC,-0.0652
21,GGAGTGCC,0.138
22,AGAGAGGG,-0.219
23,CATGCAGC,-0.251
24,AAAGCTGC,-0.0187
25,ATGCCTCG,0.0515

row,Sequence,PBM E-score
1,ACCGGGCA,0.165
2,GATGATTA,-0.0207
3,CGTCCGCA,0.0032
4,ACGTTTCC,0.0785
5,CGCTCCAA,-0.0489
6,CGGAGTTA,0.331
7,GTTCTAAA,0.0362
8,TCGAGGAA,-0.13
9,GCCTACAA,-0.00479
10,AACACTTG,-0.0822
11,CCCCGAGA,0.326
12,ACTGCACG,-0.0401
13,CGCTCGTC,-0.19
14,CTAAAAGA,-0.279
15,ATCCGATC,0.428
16,TATATTGA,0.0944
17,ACAACATC,0.00997
18,GCTTATCA,-0.119
19,AATAACGC,-0.202
20,GGTGAACC,0.0847
21,CCCCGATA,0.145
22,CTCGTGGC,-0.0619
23,AGTCTATC,-0.0666
24,CCCTTAAG,-0.0177
25,AGTTAGAA,0.128

row,Sequence,PBM E-score
1,CCGGTGTA,0.211
2,CCTAAGTA,-0.0289
3,AACGGCCT,-0.0804
4,CACACTTA,-0.00541
5,GAGGAGTA,-0.00803
6,GCAACGTA,-0.231
7,AGTGGCTG,-0.055
8,AGGCCTGA,-0.12
9,CGATCCAA,-0.122
10,ATCGAATG,-0.251
11,CTATGTAA,-0.228
12,AGCACTAT,-0.195
13,TAGGTGGA,-0.279
14,CCATATAG,-0.082
15,GGATCATA,0.228
16,AAATATAC,0.00214
17,AACTAGTT,-0.162
18,GTTCTCCA,-0.108
19,CGACCAAA,0.149
20,CGTATGGA,-0.0248
21,ACTCGTAC,-0.0691
22,GGCTAACA,0.057
23,CCAACTGG,-0.253
24,ATTAACTA,-0.191
25,ATACCGAC,0.167

row,Sequence,PBM E-score
1,ATTAATGG,0.0395
2,ATATACCA,-0.153
3,GCTGAGTA,-0.26
4,ATGTCTAA,-0.225
5,AGTGATAC,-0.167
6,GAACAGGA,-0.0169
7,CAAGTTGC,0.035
8,CCTCCACA,-0.208
9,GTGCCTTA,-0.136
10,AGTACCTC,-0.124
11,GTTTAACA,-0.0992
12,ACGTTAGA,-0.0864
13,CAGACGAC,-0.289
14,CAAACGCC,-0.0471
15,AAGTCACA,-0.153
16,GGTTCCCA,-0.0962
17,GGAATGAC,0.107
18,CGCCGTTA,0.0411
19,AAATCAGT,0.0784
20,ATTGGAGC,-0.113
21,GTCACGAC,-0.0624
22,ATAACCAC,0.0174
23,CCCAACAG,-0.222
24,ACTCTTAG,-0.232
25,GATCTCCA,-0.133

row,Sequence,PBM E-score
1,GAACCAAC,-0.0243
2,ATCCGCCA,0.324
3,GATATCGA,-0.107
4,ACGTTCAT,-0.283
5,GACACCCA,-0.154
6,GGGCCAGA,-0.0162
7,AAGAATCT,-0.0901
8,GGCTTCCC,0.143
9,AGGTCGAT,0.0379
10,GATACGAC,-0.14
11,AAGCCTCA,-0.0973
12,TCTCCTAA,-0.31
13,AACAGCGC,-0.133
14,GGTTCCAA,0.196
15,ACAACTAG,0.0102
16,TACTTCGA,0.0368
17,ACGTAAAC,-0.0878
18,AAACCGTC,0.118
19,AATGCTAT,-0.157
20,GGGCTAGA,0.00508
21,ACTCCTCC,0.166
22,AGGCATGA,-0.112
23,TCGAAAAA,-0.00854
24,ACCGACTA,0.139
25,AGCTGCAA,-0.0718

row,Sequence,PBM E-score
1,GACCCCGA,0.288
2,GGGTGGAC,0.11
3,CGATTTGA,-0.0548
4,GAACTCCC,0.174
5,ACTTTATC,0.0704
6,GGGCCTCA,0.0712
7,GGAGCTTA,0.0651
8,CAAATGCC,0.11
9,CCGAGCGA,0.403
10,GGGATAAC,0.0907
11,AAGACCCG,0.282
12,AATAGGCT,-0.175
13,CTAATTGC,0.0722
14,CAGCGCCC,-0.154
15,GGGTCTCA,8e-05
16,GTCGGCAA,0.368
17,CCTGTTGC,-0.154
18,ATACACGA,-0.09
19,AGACAGGC,-0.103
20,AAGGTCCT,-0.133
21,CATACATA,-0.216
22,AATCGAGT,-0.0955
